Measured values published in PubChem BioAssay AID504845 (National Center for Advancing Translational Sciences (NCATS), 2011).
Hit rate of the full screen: of about 390,000 compounds, about 150 (0.038%) were called active. Inconclusive results, whose numbers are uncertain, are shown with a selection of clear calls. The call rests on the fitted dose curve; in most records, active means well fitted inhibition curve with a large enough effect; inconclusive means small, poorly fitted or top-dose-only effect; inactive means no such curve, though single readings can be large or run the other way. Potencies of inconclusive entries are doubtful fits and often do not repeat.

These compounds were tested against Regulator of G-protein signaling 4 (Homo sapiens) (UniProt P49798) (assay: Inhibitors of Regulator of G Protein Signaling (RGS) 4: qHTS). Details: Transcreener GDP fluorescence polarization, RGS4-accelerated GTP hydrolysis; series mostly up to 114 µM.
Procedure, shortened: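 MLSMR compounds (23 nl, pin-transferred) preincubated 10 min at room temperature with a 500nM (2x) first reagent, then RGS4 at 900nM (2x) plus Transcreener GDP mix added; fluorescence polarization (620/688 nm) read before and after 90 min at 30 °C.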
Further: nearly all actives have a fitted effect of over 75% in size.
On the % scale 0 is the no-effect control and ±100 the full control effect; potency means the concentration at half of the fitted maximal effect; tags describe the fitted curve by direction and shape.

Chain of UniProt P49798 (P49798 whole entry, looked up): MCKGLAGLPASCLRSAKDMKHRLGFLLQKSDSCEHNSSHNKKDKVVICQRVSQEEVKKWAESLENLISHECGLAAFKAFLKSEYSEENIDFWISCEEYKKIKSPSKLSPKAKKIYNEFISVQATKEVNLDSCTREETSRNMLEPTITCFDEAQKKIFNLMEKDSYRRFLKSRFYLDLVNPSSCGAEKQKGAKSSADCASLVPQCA

Structure (SMILES)	Potency	activity change, negative = inhibition
Cc1ccc(C(C)C)c(OCc2ccc(C(=O)N/N=C/c3cccc(O)c3O)cc2)c1	inconclusive: 79.4 µM [inhibitor, partial curve, poor fit]	
CCS(=O)(=O)c1ncc(Cl)c(C(=O)N2CCN(c3ccc(OC)cc3)CC2)n1	inconclusive: 35.5 µM [inhibitor, full curve, poor fit]	
CC(C)CC(=O)n1sc(NC(=O)c2ccccc2)nc1=O	inconclusive: 100 µM [inhibitor, partial curve, poor fit]	
CCN(CC)C(=O)C12C(=O)Oc3ccccc3C1C2(C)C(=O)c1ccc(F)cc1 (stereo unspecified)	inconclusive: 100 µM [inhibitor, partial curve, poor fit]	
COc1ccc2oc3cc(C)[n+]([O-])c(-c4ccc(C)cc4)c3c2c1	inactive	
O=[N+]([O-])c1ccc(S(=O)(=O)NN=Cc2ccc(Cl)c(Cl)c2)cc1	inconclusive: 17.8 µM [inhibitor, full curve, poor fit]	
Cc1cnc(C(=O)OCC(=O)N(C(C)C)C(C)C)cn1	inconclusive: 79.4 µM [inhibitor, single point]	
COc1ccccc1N/N=C/c1ccc2c(c1)OCO2	inconclusive: 89.1 µM [inhibitor, single point]	
CCN(CC)C(=O)c1sc2c(c1C)c(=O)n(Cc1ccccc1)c(=O)n2Cc1ccccc1C	inactive	
COc1ccc(N/C=C(\[N+](=O)[O-])S(=O)(=O)c2ccccc2)cc1	inactive	
CCOc1ccc(C(=O)Nc2c(C(=O)Nc3ccccc3OC)oc3ccccc23)cc1OCC	inactive	
COc1ccc(CCN2C(=O)CSC2=Nc2ccc(C(C)C)cc2)cc1OC	inactive	
COC(=O)c1ccc(NN=Nc2ccc(C)cc2)cc1	inconclusive: 79.4 µM [inhibitor, single point]	
NS(=O)(=O)c1ccc(Nc2nc(-c3ccc(F)cc3)cs2)cc1	inconclusive: 100 µM [inhibitor, single point]	
CC(C(=O)N(C)C1CCS(=O)(=O)C1)N1C(=O)/C(=C/c2ccc(F)cc2)SC1=S (stereo unspecified)	inconclusive: 10 µM [inhibitor, full curve, poor fit]	
CC1CCC/C(=C\Nc2ccc(O)cc2)C1=O (stereo unspecified)	inconclusive: 50.1 µM [inhibitor, partial curve, poor fit]	
O=C1CCCC2=C1C(c1ccco1)Nc1ccc3ccccc3c12 (stereo unspecified)	inconclusive: 17.8 µM [inhibitor, full curve, poor fit]	
O=c1c2ccccc2n2c(=S)[nH]nc2n1-c1ccccc1	inconclusive: 79.4 µM [inhibitor, partial curve, poor fit]	
O=C(CSc1nc2ccccc2s1)NNC(=S)Nc1ccc(Br)cc1	inconclusive: 100 µM [inhibitor, partial curve, poor fit]	
COc1ccccc1NC(=O)c1cc2c(=O)n(C)c3ccccc3c2n1C	inconclusive: 70.8 µM [inhibitor, partial curve, poor fit]	
CCN1CCc2c(sc(NC(=S)NC(=O)c3cccc(F)c3)c2C(N)=O)C1	inconclusive: 50.1 µM [inhibitor, single point]	
CCN(CC(=O)NCc1ccc(Cl)cc1)C(=O)CSc1ccccc1F	inconclusive: 100 µM [inhibitor, single point]	

Structure (SMILES)	Potency	activity change, negative = inhibition
CC(=O)Nc1ccc(C2=NNC(=NCC3CCCO3)SC2)cc1 (stereo unspecified)	inconclusive: 100 µM [inhibitor, partial curve, poor fit]	
COc1ccc(N=Cc2c(O)ccc3ccccc23)cc1	inconclusive: 89.1 µM [inhibitor, partial curve, poor fit]	
O=C(COC(=O)C1COc2ccccc2O1)NC1CCCCC1 (stereo unspecified)	inactive	
Cc1ccc(CN(C(=O)c2ccc(C(C)(C)C)cc2)c2ccccn2)o1	inactive	
Cc1ccc(C2C(C(=O)c3cc4ccccc4o3)=C(O)C(=O)N2c2cc(C)on2)cc1 (stereo unspecified)	inconclusive: 50.1 µM [inhibitor, partial curve, poor fit]	
Cc1sc2ccccc2[n+]1CC(=O)c1ccccc1	inconclusive: 11.2 µM [inhibitor, full curve, poor fit]	
O=C(CCN1C(=O)C2C3C=CC(C3)C2C1=O)Nc1c(F)cccc1F (stereo unspecified)	inconclusive: 89.1 µM [inhibitor, single point]	
CCCCCCn1c(SCC(=O)OC)nc2c1c(=O)[nH]c(=O)n2C	inconclusive: 25.1 µM [inhibitor, full curve, poor fit]	
O=C(N/N=C/c1sc(=O)n(Cc2ccc(Br)cc2)c1Cl)c1ccco1	inconclusive: 44.7 µM [inhibitor, partial curve, poor fit]	
C=C(C)[C@H]1CC=C(C)C(=O)C1	inconclusive: 8.44 µM [inhibitor, partial curve, poor fit]	
O=S(=O)(c1ccccc1)N1CCN(C2CCN(Cc3ccccc3)CC2)CC1	inactive	
COc1ccc(C(=O)Nc2cccc(C(=O)OCc3cc(=O)n4nc(C5CC5)sc4n3)c2)cc1	inactive	
CS(=O)(=O)N1CCN(c2ccc([N+](=O)[O-])c(NCc3ccc(Cl)cc3)c2)CC1	inconclusive: 39.8 µM [inhibitor, partial curve, poor fit]	
COC(=O)c1ccc([C@@H]2Nc3c(OC)ccc(C)c3[C@@H]3C=CC[C@@H]32)cc1	inconclusive: 17.8 µM [inhibitor, full curve, poor fit]	
C=CCNc1oc(-c2ccco2)nc1S(=O)(=O)c1ccccc1	inconclusive: 100 µM [inhibitor, partial curve, poor fit]	
Cc1ccc(C)c(Cn2nnc3c(=O)[nH]c(C4CCN(S(=O)(=O)c5ccc(S(=O)(=O)NC6CC6)cc5)CC4)nc32)c1	inconclusive: 100 µM [inhibitor, single point]	
C[N+](C)(C)CC(O)CC(=O)O (stereo unspecified)	inactive	
COc1ccc(Br)cc1/C=N/Nc1ccc(S(=O)(=O)Nc2ccccc2C(=O)O)cc1[N+](=O)[O-]	inconclusive: 79.4 µM [inhibitor, partial curve, poor fit]	
COc1ccccc1C1C2=C(N=C3SCC(=O)N31)c1ccccc1CC2 (stereo unspecified)	inconclusive: 89.1 µM [inhibitor, single point]	
COC(=O)c1ccc(-c2nc(O)c(C)s2)cc1	inconclusive: 70.8 µM [inhibitor, partial curve, poor fit]	
C=CCn1c(SCC(=O)Nc2sccc2C(N)=O)nc2ccc(Cl)cc2c1=O	inconclusive: 89.1 µM [inhibitor, single point]	
Nc1cccc(S(=O)(=O)N2CCOCC2)c1	inactive	

Structure (SMILES)	Potency	activity change, negative = inhibition
CN(C)CCCN(C(=O)CCOc1ccccc1)c1nc2ccc(F)cc2s1	inactive	
COc1cc2c(cc1OC)C1=NC(=O)CN1C(SCc1ccccc1)=N2		inactive: -6.82% [at 11.4 µM]
COC(=O)c1ccc2c(c1)C(C)(C)C(/C=C/c1ccc(OC)c(OC)c1OC)=[N+]2C	inconclusive: 28.2 µM [inhibitor, partial curve, poor fit]	
Cc1cccc(N2C(=O)C(Cl)=C(N3CCOCC3)C2=O)c1	inconclusive: 56.2 µM [inhibitor, partial curve, poor fit]	
O=C(c1cc2sccc2n1Cc1ccccc1)N1CCCc2ccccc21	inactive	
CN1CCC(CNC(=O)Nc2csc3ccccc23)CC1	inconclusive: 100 µM [inhibitor, single point]	
O=[N+]([O-])c1ccc(O)c(C2=NNC(c3ccccc3F)C2)c1 (stereo unspecified)	inactive	
Cc1ccc(CN2C(=O)C(O)(c3c(C)[nH]c4ccccc34)c3ccccc32)cc1 (stereo unspecified)	inconclusive: 79.4 µM [inhibitor, partial curve, poor fit]	
Brc1ccc(NC2=Nc3ccccc3CC2)cc1	inactive	
Cc1ccc(C(=O)Nc2cccnc2)cc1S(=O)(=O)N1CCCCC1	inconclusive: 50.1 µM [inhibitor, partial curve, poor fit]	
Clc1ccc(OCCCCN2CCc3ccccc3C2)cc1		inactive: 18.8% [at 11.4 µM]
COc1ccc(C(C#N)c2ccc(Cl)nn2)cc1 (stereo unspecified)	inconclusive: 79.4 µM [inhibitor, partial curve, poor fit]	
CNC(=O)C1CCC(Cn2c(=O)c3sccc3n(Cc3cc(C)ccc3C)c2=O)CC1 (stereo unspecified)	inactive	
Cc1cccc(-c2cc(C(=O)NCc3ccccn3)c3ccccc3n2)c1	inactive	
COc1ccc(S(=O)(=O)Oc2c(OC)cc(C(=S)N3CCOCC3)cc2OC)cc1	inconclusive: 89.1 µM [inhibitor, partial curve, poor fit]	
CCOC(=O)c1c(NC(=O)c2cc(-c3ccccc3OC)on2)sc(C)c1C	inconclusive: 31.6 µM [inhibitor, full curve, poor fit]	
COc1ccc(NC(=O)CCc2c(C)nc3c(c2C)c(=O)n(C)c(=O)n3C)c(OC)c1	inactive	
O=C(COc1ccccc1F)Nc1ccc2nc(SCC(=O)N3CCc4ccccc43)sc2c1	inconclusive: 70.8 µM [inhibitor, partial curve, poor fit]	
Nc1ccc(S(=O)(=O)c2cc(O)c3ccccc3c2O)cc1	inconclusive: 50.1 µM [inhibitor, partial curve, poor fit]	
CCN(CC)C(=O)c1cccc2nc3ccccc3nc12	inconclusive: 39.8 µM [inhibitor, partial curve, poor fit]	
CCc1ccc2[nH]cc(S(=O)(=O)c3ccc(C(C)C)cc3)c(=O)c2c1	inactive	
Cc1ccc(C(=O)C2CCN(CC(=O)Nc3ccc4c(c3)OCCO4)CC2)cc1	inactive	
